Data from the supplement of paper PMC4604168 (melanoma cell lines).
The other results are listed elsewhere or left out. Most values come without repeats; read them as rough.

Assays:
Assay in all cases: cell count relative to DMSO control; melanoma cells; higher = more viable cells
Settings in all cases: library dose: low library concentration; 72 h
MZ2-MEL = system: MZ2-MEL
MeWo = system: MeWo
RPMI7951 = system: RPMI7951
RVH-421 = system: RVH-421
SkMel28 = system: SkMel28
SkMel2 = system: SkMel2
SkMel30 = system: SkMel30
SkMel5 = system: SkMel5
UACC257 = system: UACC257
UACC62 = system: UACC62
WM115 = system: WM115
WM1716 = system: WM1716
WM1745 = system: WM1745
WM3526 = system: WM3526
WM3619 = system: WM3619
WM451Lu = system: WM451Lu
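Also: cell number obtained by counting DAPI-stained nuclei in high-throughput microscope images with image analysis software, screen run in 1,536-well plates.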

Compound | cell count (MZ2-MEL) | cell count (MeWo) | cell count (RPMI7951) | cell count (RVH-421) | cell count (SkMel28) | cell count (SkMel2) | cell count (SkMel30) | cell count (SkMel5) | cell count (UACC257) | cell count (UACC62) | cell count (WM115) | cell count (WM1716) | cell count (WM1745) | cell count (WM3526) | cell count (WM3619) | cell count (WM451Lu)
CNC(=O)c1cc(Oc2ccc(NC(=O)Nc3ccc(Cl)c(C(F)(F)F)c3)cc2)ccn1 [sorafenib] + CCc1ccc(CCOc2ccc(CC3SC(=O)NC3=O)cc2)nc1 [pioglitazone] (first compound 0.4 µM, partner dose 2 µM) | 94.9% | 100% | 92.9% | 94.4% | 96.7% | 89.2% | 97.1% | 99.7% | 91.7% | 98.2% | 109% | 108% | 93.9% | 96.9% | 118% | 86.9%
CS(=O)(=O)CCNCc1ccc(-c2ccc3ncnc(Nc4ccc(OCc5cccc(F)c5)c(Cl)c4)c3c2)o1 [lapatinib] + NCC(=O)Nc1ccc(-n2nc(C(F)(F)F)cc2-c2ccc3c(ccc4ccccc43)c2)cc1 [OSU03012] (first compound 0.8 µM, partner dose 1 µM) | 81.5% | 63.4% | 97% | 79.9% | 80.3% | 60.1% | 62.8% | 93.4% | 114% | 92.5% | 88% | 122% | 86.7% | 59.8% | 142% | 61%
CN1CCN(c2ccc3nc(-c4c(N)c5c(F)cccc5[nH]c4=O)[nH]c3c2)CC1 [Dovitinib] + O=C1NC(=O)/C(=C/c2ccc(-c3ccc(F)cc3O)o2)S1 [AS252424] (first compound 0.1 µM, partner dose 1 µM) | 84.6% | 82.2% | 94% | 100% | 87.8% | 92.3% | 64.2% | 82.6% | 78.2% | 83% | 90.3% | 117% | 80.8% | 91.1% | 87.2% | 92.7%
CNC(=O)c1cc(Oc2ccc(NC(=O)Nc3ccc(Cl)c(C(F)(F)F)c3)cc2)ccn1 [sorafenib] + COc1cc2ncnc(Nc3ccc(Oc4ccccc4)cc3)c2cc1OC [SrcI1] (first compound 0.4 µM, partner dose 2 µM) | 88.6% | 95% | 91.4% | 116% | 96.8% | 105% | 116% | 97.1% | 90.6% | 103% | 99.5% | 99.2% | 73.3% | 112% | 98.7% | 120%
C=CCNC1=C2C[C@@H](C)C[C@H](OC)[C@H](O)[C@@H](C)/C=C(\C)[C@H](OC(N)=O)[C@@H](OC)/C=C\C=C(/C)C(=O)NC(=CC1=O)C2=O [Tanespimycin] + NC(=O)Nc1cc(-c2cccc(F)c2)sc1C(=O)N[C@H]1CCCNC1 [AZD7762] (first compound 0.002 µM, partner dose 0.02 µM) | 106% | 107% | 81.2% | 112% | 125% | 110% | 111% | 83.8% | 108% | 85.1% | 75% | 100% | 77% | 97.6% | 41.5% | 85.6%
C=CCNC1=C2C[C@@H](C)C[C@H](OC)[C@H](O)[C@@H](C)/C=C(\C)[C@H](OC(N)=O)[C@@H](OC)/C=C\C=C(/C)C(=O)NC(=CC1=O)C2=O [Tanespimycin] + Oc1nc(-c2ccc(C(F)(F)F)cc2)nc2c1CSCC2 [XAV939] (first compound 0.002 µM, partner dose 2 µM) | 91.9% | 87.8% | 80.5% | 88.8% | 80.8% | 99.2% | 98.9% | 88.3% | 85% | 104% | 90.7% | 67.3% | 58.2% | 93.9% | 74.6% | 105%
C=CCNC1=C2C[C@@H](C)C[C@H](OC)[C@H](O)[C@@H](C)/C=C(\C)[C@H](OC(N)=O)[C@@H](OC)/C=C\C=C(/C)C(=O)NC(=CC1=O)C2=O [Tanespimycin] + Cc1cc(N2CCOCC2)cc2[nH]c(-c3c(NC[C@@H](O)c4cccc(Cl)c4)cc[nH]c3=O)nc12 [BMS536924] (first compound 0.002 µM, partner dose 0.2 µM) | 101% | 80.7% | 85.8% | 84.1% | 100% | 82.4% | 98.4% | 101% | 88.7% | 98.4% | 97.2% | 108% | 82.8% | 77.3% | 83% | 77.1%
CS(=O)(=O)CCNCc1ccc(-c2ccc3ncnc(Nc4ccc(OCc5cccc(F)c5)c(Cl)c4)c3c2)o1 [lapatinib] + COc1ccc(-c2ccc3c(N4CCOCC4)nc(N4C[C@@H](C)O[C@@H](C)C4)nc3n2)cc1CO [KU0063794] (first compound 0.8 µM, partner dose 0.02 µM) | 90% | 101% | 98.9% | 130% | 95.7% | 101% | 105% | 114% | 81.1% | 98.1% | 102% | 101% | 110% | 106% | 80.5% | 106%
C=CCNC1=C2C[C@@H](C)C[C@H](OC)[C@H](O)[C@@H](C)/C=C(\C)[C@H](OC(N)=O)[C@@H](OC)/C=C\C=C(/C)C(=O)NC(=CC1=O)C2=O [Tanespimycin] + CO[C@@H]1[C@H](N(C)C(=O)c2ccccc2)C[C@H]2O[C@]1(C)n1c3ccccc3c3c4c(c5c6ccccc6n2c5c31)C(=O)NC4 [Midostaurin] (first compound 0.002 µM, partner dose 0.08 µM) | 103% | 76.7% | 83.5% | 67.9% | 102% | 92.8% | 94.1% | 84% | 78.4% | 89.4% | 80.4% | 77% | 67.3% | 102% | 101% | 57.7%
CNC(=O)c1cc(Oc2ccc(NC(=O)Nc3ccc(Cl)c(C(F)(F)F)c3)cc2)ccn1 [sorafenib] + Cc1cc(N2CCOCC2)cc2[nH]c(-c3c(NC[C@@H](O)c4cccc(Cl)c4)cc[nH]c3=O)nc12 [BMS536924] (first compound 0.4 µM, partner dose 0.2 µM) | 95.1% | 92.2% | 98.8% | 85.6% | 85.9% | 91.3% | 80.5% | 85.6% | 77.5% | 103% | 115% | 100% | 78% | 97% | 85.8% | 107%
C=CCNC1=C2C[C@@H](C)C[C@H](OC)[C@H](O)[C@@H](C)/C=C(\C)[C@H](OC(N)=O)[C@@H](OC)/C=C\C=C(/C)C(=O)NC(=CC1=O)C2=O [Tanespimycin] + O=C(O)c1ccc(-c2c[nH]c3ncc(-c4ccccc4)cc23)cc1C1CCCC1 [GSK650394] (first compound 0.002 µM, partner dose 0.16 µM) | 91.3% | 87.7% | 88.3% | 107% | 110% | 84.1% | 104% | 99.9% | 75.9% | 84.7% | 89.3% | 98.1% | 82.9% | 90.5% | 64.3% | 121%
CNC(=O)c1cc(Oc2ccc(NC(=O)Nc3ccc(Cl)c(C(F)(F)F)c3)cc2)ccn1 [sorafenib] + Oc1nc(-c2ccc(C(F)(F)F)cc2)nc2c1CSCC2 [XAV939] (first compound 0.4 µM, partner dose 2 µM) | 96.2% | 94.5% | 86.4% | 104% | 101% | 111% | 104% | 89.1% | 76.7% | 106% | 95.4% | 63.3% | 87.5% | 108% | 116% | 133%
CNC(=O)c1cc(Oc2ccc(NC(=O)Nc3ccc(Cl)c(C(F)(F)F)c3)cc2)ccn1 [sorafenib] + N#Cc1c(O)c2c(-c3ccc(-c4ccccc4O)cc3)csc2[nH]c1=O [A769662] (first compound 0.4 µM, partner dose 2 µM) | 97.2% | 93% | 95.1% | 77.2% | 79.3% | 90.4% | 92.5% | 94.7% | 112% | 93.6% | 92.6% | 80% | 87.5% | 82.8% | 126% | 101%
CN1CCN(c2ccc3nc(-c4c(N)c5c(F)cccc5[nH]c4=O)[nH]c3c2)CC1 [Dovitinib] + NCC(=O)Nc1ccc(-n2nc(C(F)(F)F)cc2-c2ccc3c(ccc4ccccc43)c2)cc1 [OSU03012] (first compound 0.1 µM, partner dose 1 µM) | 93% | 55.4% | 86.3% | 88.6% | 72.4% | 81.1% | 56% | 89.5% | 83.8% | 87.1% | 90.6% | 100% | 86.3% | 36.5% | 108% | 66.9%
CNC(=O)c1cc(Oc2ccc(NC(=O)Nc3ccc(Cl)c(C(F)(F)F)c3)cc2)ccn1 [sorafenib] + O=C(Nc1ccccc1)c1cc([N+](=O)[O-])ccc1Cl [GW9662] (first compound 0.4 µM, partner dose 2 µM) | 100% | 109% | 102% | 104% | 104% | 98.8% | 100% | 97.4% | 85.1% | 78.9% | 97.6% | 91.8% | 92.2% | 122% | 105% | 99.5%
C[C@@H](Oc1cc(-c2cnn(C3CCNCC3)c2)cnc1N)c1c(Cl)ccc(F)c1Cl [Crizotinib] + Cc1cc(N2CCOCC2)cc2[nH]c(-c3c(NC[C@@H](O)c4cccc(Cl)c4)cc[nH]c3=O)nc12 [BMS536924] (first compound 0.2 µM, partner dose 0.2 µM) | 103% | 93.2% | 103% | 112% | 100% | 95.5% | 86.9% | 95.1% | 85.6% | 85.2% | 101% | 105% | 61.9% | 90.1% | 128% | 93.5%
CNC(=O)c1cc(Oc2ccc(NC(=O)Nc3ccc(Cl)c(C(F)(F)F)c3)cc2)ccn1 [sorafenib] + Cc1ccc(NC(=O)c2cccc(N(C)C)c2)cc1NC(=O)c1ccc(O)cc1 [ZM336372] (first compound 0.4 µM, partner dose 2 µM) | 100% | 100% | 92.7% | 110% | 99.7% | 88.8% | 103% | 96.8% | 101% | 95.3% | 106% | 96.7% | 80.8% | 76.3% | 106% | 111%
CS(=O)(=O)CCNCc1ccc(-c2ccc3ncnc(Nc4ccc(OCc5cccc(F)c5)c(Cl)c4)c3c2)o1 [lapatinib] + CC(C)(C)c1cnc(CSc2cnc(NC(=O)C3CCNCC3)s2)o1 [SNS-032] (first compound 0.8 µM, partner dose 0.01 µM) | 113% | 99.5% | 94.8% | 90.3% | 97.5% | 92.6% | 139% | 110% | 97.6% | 90.7% | 104% | 114% | 94.3% | 97.8% | 176% | 99.3%
